Measurements as given in PubChem BioAssay AID1345083 (National Center for Advancing Translational Sciences (NCATS), 2018).
Values joined by “and” are separate entries in the source; they are usually repeats but may differ in a detail not shown here. Equal entries are not always repeated. About 6,200 (6.6%) of roughly 94,000 compounds were called active. Inconclusive results, whose numbers are uncertain, are shown with a selection of clear calls. Calls follow the shape of the dose curve; as a rule, active = well fitted inhibition curve with a large enough effect; inconclusive = small, poorly fitted or top-dose-only effect; inactive = flat fitted curve, though single readings scatter. Potencies of inconclusive entries are doubtful fits and often do not repeat.

test: Cytotoxic Profiling in HEK 293 Cell Line of Diverse Libraries Using Quantitative High-Throughput Screening; conditions: HEK 293 viability, ATP luminescence (CellTiter-Glo), 48-72 h; series mostly up to 115 µM; also: nearly all actives have a fitted effect of over 60% in size
Summary of the method: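 Cells seeded first (HEK 293, 250 cells/well), then compound added by pintool. Incubation ran 48 or 72 hr at 37 degree Celsius. CellTiter-Glo was added and luminescence imaged after 10 min at room temperature.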
Potency is read from the fitted curve at half-maximal effect; tags tell the direction and shape of the fitted curve.

Structure (SMILES) | Potency
Cc1ccc(NC(=O)CN2C(=O)C(c3ccccc3)=NC23CCCC3)c(C)c1 | inconclusive: 70.8 µM [inhibitor, single point]
COc1ccc(C(=O)N2CCC3(CC2)C(OC)CN3c2cccc(F)c2)cn1 (stereo unspecified) | inactive
Cc1cc(C[C@@H]2COC[C@@H]2NC(=O)C2CCN(C(=O)N(C)C)CC2)on1 | inactive
Cn1cc(CN2C[C@H](C(=O)Nc3ccc(F)cc3)C[C@H]2c2cccc(C(F)(F)F)c2)cn1 | inconclusive: 56.2 µM [inhibitor, partial curve, poor fit]
O=C(Cc1ccccc1)NCC1CN(Cc2ccc3[nH]ccc3c2)CC12CN(c1ccccc1)C2 (stereo unspecified) | active: 39.8 µM
CC(=O)Nc1ccc(CN2CCC3(CC2)CC(c2cccc(C(F)(F)F)c2)=NO3)cc1 | active: 39.8 µM
COc1cc(-c2onc(C)c2C(=O)NCC2CCCO2)cc(OC)c1OC (stereo unspecified) | inconclusive: 39.8 µM [inhibitor, partial curve, poor fit]
COc1ccccc1OCCNC(=O)C1CCN(c2cc(C(F)(F)F)nc(C)n2)CC1 | inconclusive: 70.8 µM [inhibitor, single point]
O=C1COc2ccc(-c3cccc(OC(F)(F)F)c3)nc2CN1 | inconclusive: 100 µM [inhibitor, partial curve]
O=C1CCN(C(=O)C2CCC2)c2ccc(F)cc2CN1Cc1ccccc1 | inconclusive: 89.1 µM [inhibitor, single point]
O=C(Nc1ccc(F)c(F)c1)c1cc2n(n1)CC(c1ccc(Br)cc1)OC2 (stereo unspecified) | inconclusive: 79.4 µM [inhibitor, partial curve, poor fit]
COc1ccc(CN2CCC(CO)(CN3CCCC3)CC2)c(OC)c1C | inconclusive: 79.4 µM [inhibitor, partial curve, poor fit]
COc1cc(CN2CCN(c3noc(C(C)C)n3)CC2CCO)cc(OC)c1 (stereo unspecified) | inconclusive: 89.1 µM [inhibitor, single point]
O=C(Cc1ccccc1)N1CCCC2(CC(c3cccc(C(F)(F)F)c3)=NO2)C1 (stereo unspecified) | inconclusive: 79.4 µM [inhibitor, partial curve, poor fit]
O=C(O)C[C@@H]1CCN(S(=O)(=O)c2ccc(F)cc2)C[C@@H]1CC1=NCCc2cc(F)ccc21 | inactive
O=C(C1CCOCC1)N1CC(Oc2cccc(-c3nc(-c4ccccc4)no3)c2)C1 | inconclusive: 44.7 µM [inhibitor, partial curve, poor fit]
Cc1ccc(-c2nc(C(=O)N3CCN(c4ccc(C)cc4C)CC3)no2)cc1 | inconclusive: 89.1 µM [inhibitor, single point]
CC(C)NC(=O)C[C@@H]1CCNC[C@@H]1Cc1cc(CSc2ccccc2)on1 | inactive
COc1cccc(CN2Cc3cc(NC(=O)COc4ccccc4)ccc3OC(C)C2=O)c1 (stereo unspecified) | inconclusive: 50.1 µM [inhibitor, partial curve, poor fit]
O=C(CCCn1cncn1)N1C[C@H](CO)C[C@H](CN2CCOCC2)C1 | inactive
CN1Cc2ncnc(N3CCN(Cc4ccccc4)CC3)c2CN(c2ccc([N+](=O)[O-])cc2)C1=O | inactive

Structure (SMILES) | Potency
COc1ccc(NC(=O)N2C[C@@H]3C[C@H](C2)c2c(NC(=O)c4ccc5c(c4)OCO5)ccc(=O)n2C3)cc1 | inactive
CN1CCC2(C1)CN(CC1CCOCC1)c1ccc(C(=O)NCCCn3ccnc3)cc12 (stereo unspecified) | inconclusive: 126 µM [inhibitor, single point]
COC(=O)CN1C(=O)[C@@H]2C[C@@H](O)CN2C2(CN(Cc3ccncc3)C2)C1=O | inactive
Cc1nn(C)c(C)c1-c1cc(C(=O)N[C@H]2CC[C@H]2NC(C)C)n(C)n1 | inactive
COCCNC(=O)[C@@H]1C[C@H](Oc2ccccc2)CN1C(=O)CC(C)C | inactive
COc1cc(OC)cc(C(=O)N2CCC(c3n[nH]c(=O)n3Cc3ccc(F)cc3)CC2)c1 | inactive
O=C(c1ccccc1F)N1CCCC(C(=O)N2CCC(N3Cc4cccn4C3=O)CC2)C1 (stereo unspecified) | inconclusive: 22.4 µM [inhibitor, partial curve, poor fit]
Cc1cc(C)cc(C(=O)N2c3ccccc3CC2c2nc(C3CC3)no2)c1 (stereo unspecified) | inconclusive: 50.1 µM [inhibitor, partial curve, poor fit]
CC(C)(C)c1nnc2ccc(C(=O)NCc3cccc(Cl)c3)cn12 | inconclusive: 126 µM [inhibitor, single point]
Fc1ccc2c(c1)nc1n2[C@@H](CN(Cc2ccccn2)Cc2ccccn2)COC1 | inconclusive: 126 µM [inhibitor, single point]
COc1ccc2[nH]c3c(c2c1)CCNC31CCN(C(=O)C2CCN2C2CCCCC2)CC1 (stereo unspecified) | inconclusive: 50.1 µM [inhibitor, partial curve, poor fit]
CCOC(=O)c1cccc(NC(=O)C2=CC(C)(C)Oc3ccc(OC)cc32)c1 | active: 25.1 µM
CC(C)c1ccc(NC2=N[C@H]3[C@@H](O)[C@H](O)C[C@H](C(=O)NC4CCCC4)[C@H]3S2)cc1 | inconclusive: 100 µM [inhibitor, partial curve, poor fit]
COc1cccc(-c2ccc(C(=O)NCCNC(=O)c3ccccc3F)cc2)c1 | active: 89.1 µM and inconclusive: 11.2 µM [inhibitor, full curve]
CCN1CCN(Cc2cn(-c3ccccc3F)nc2-c2cc(C)sc2C)CC1 | inconclusive: 63.1 µM [inhibitor, partial curve, poor fit]
COC1C(=O)N(C2CCN(S(=O)(=O)Cc3ccccc3F)CC2)C12CCOCC2 (stereo unspecified) | inactive
C=CCNC(=O)c1cnn2c1CN(C(=O)c1ccccc1F)CC2 | inconclusive: 112 µM [inhibitor, single point]
Cc1[nH]ncc1CNC(=O)C1CCN(c2cn[nH]c(=O)c2)C1 (stereo unspecified) | inactive
Cn1cc(CN2CCCC(COc3ccccc3C(=O)NC3CC3)C2)c2ccccc21 (stereo unspecified) | inconclusive: 70.8 µM [inhibitor, single point]
O=C(CNC(=O)c1ccc(-c2cnc3ccccc3c2)cc1)NCc1cccc(F)c1 | inconclusive: 39.8 µM [inhibitor, partial curve, poor fit]
